Measured values from publication PMC9911399, “Two distinct binding modes provide the RNA-binding protein RbFox with extraordinary sequence specificity”.
Numbering of substitutions follows the chain as printed; changes in the protein carry UniProt numbers. The list shows a part of the results.

T1: RBFOX1 RRM (Homo sapiens, UniProt Q9NWB1 109-208)
T1 sequence: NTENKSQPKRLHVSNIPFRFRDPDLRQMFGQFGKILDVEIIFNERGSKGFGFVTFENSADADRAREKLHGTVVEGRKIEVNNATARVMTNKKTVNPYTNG

B1: AAUAUCA (DNA:RNA)
RNA: GGGAGACCGGAAUUCAGAUUGUCCAAUAUCAUUAAAUCCCGUCGUAGCCACCA
DNA 1: CAATCTGAATTCCGGTCTCCC
DNA 2: TGGTGGCTACGACGGGATT
B2: GCGCUCU (DNA:RNA)
RNA: B1 RNA with A25G, A26C, U27G, A28C, A31U
DNA 1: CAATCTGAATTCCGGTCTCCC
DNA 2: TGGTGGCTACGACGGGATT
B3: UCACCGU (DNA:RNA)
RNA: GGGAGACCGGAAUUCAGAUUGUCCUCACCGUUUAAAUCCCGUCGUAGCCACCA
DNA 1: CAATCTGAATTCCGGTCTCCC
DNA 2: TGGTGGCTACGACGGGATT
B4: AUGAUUA (DNA:RNA)
RNA: B1 RNA with A26U, U27G, C30U
DNA 1: CAATCTGAATTCCGGTCTCCC
DNA 2: TGGTGGCTACGACGGGATT
B5: UGACCUC (DNA:RNA)
RNA: B3 RNA with C26G, G30U, U31C
DNA 1: CAATCTGAATTCCGGTCTCCC
DNA 2: TGGTGGCTACGACGGGATT
B6: UCCUGCG (DNA:RNA)
RNA: B3 RNA with A27C, C28U, C29G, G30C, U31G
DNA 1: CAATCTGAATTCCGGTCTCCC
DNA 2: TGGTGGCTACGACGGGATT
B7: GGACCAU (DNA:RNA)
RNA: B3 RNA with U25G, C26G, G30A
DNA 1: CAATCTGAATTCCGGTCTCCC
DNA 2: TGGTGGCTACGACGGGATT
B8: GCCACAA (DNA:RNA)
RNA: B1 RNA with A25G, A26C, U27C, U29C, C30A
DNA 1: CAATCTGAATTCCGGTCTCCC
DNA 2: TGGTGGCTACGACGGGATT
B9: GUGGUUC (DNA:RNA)
RNA: B1 RNA with A25G, A26U, U27G, A28G, C30U, A31C
DNA 1: CAATCTGAATTCCGGTCTCCC
DNA 2: TGGTGGCTACGACGGGATT
B10: ACUCGGC (DNA:RNA)
RNA: B3 RNA with U25A, A27U, C29G, U31C
DNA 1: CAATCTGAATTCCGGTCTCCC
DNA 2: TGGTGGCTACGACGGGATT
B11: UAUACGA (DNA:RNA)
RNA: B1 RNA with A25U, U29C, C30G
DNA 1: CAATCTGAATTCCGGTCTCCC
DNA 2: TGGTGGCTACGACGGGATT
B12: UUACUCA (DNA:RNA)
RNA: B1 RNA with A25U, A26U, U27A, A28C
DNA 1: CAATCTGAATTCCGGTCTCCC
DNA 2: TGGTGGCTACGACGGGATT
B13: ACCUAAA (DNA:RNA)
RNA: B1 RNA with A26C, U27C, A28U, U29A, C30A
DNA 1: CAATCTGAATTCCGGTCTCCC
DNA 2: TGGTGGCTACGACGGGATT
B14: UAUUCAC (DNA:RNA)
RNA: B1 RNA with A25U, A28U, U29C, C30A, A31C
DNA 1: CAATCTGAATTCCGGTCTCCC
DNA 2: TGGTGGCTACGACGGGATT
B15: GGAGUGC (DNA:RNA)
RNA: B3 RNA with U25G, C26G, C28G, C29U, U31C
DNA 1: CAATCTGAATTCCGGTCTCCC
DNA 2: TGGTGGCTACGACGGGATT
B16: AGGCUCG (DNA:RNA)
RNA: B1 RNA with A26G, U27G, A28C, A31G
DNA 1: CAATCTGAATTCCGGTCTCCC
DNA 2: TGGTGGCTACGACGGGATT
B17: GACCUCA (DNA:RNA)
RNA: B1 RNA with A25G, U27C, A28C
DNA 1: CAATCTGAATTCCGGTCTCCC
DNA 2: TGGTGGCTACGACGGGATT
B18: UCGCGCA (DNA:RNA)
RNA: B3 RNA with A27G, C29G, G30C, U31A
DNA 1: CAATCTGAATTCCGGTCTCCC
DNA 2: TGGTGGCTACGACGGGATT
B19: AUUCUGC (DNA:RNA)
RNA: B1 RNA with A26U, A28C, C30G, A31C
DNA 1: CAATCTGAATTCCGGTCTCCC
DNA 2: TGGTGGCTACGACGGGATT
B20: AGUAUUG (DNA:RNA)
RNA: B1 RNA with A26G, C30U, A31G
DNA 1: CAATCTGAATTCCGGTCTCCC
DNA 2: TGGTGGCTACGACGGGATT
B21: AAGUCUC (DNA:RNA)
RNA: B1 RNA with U27G, A28U, U29C, C30U, A31C
DNA 1: CAATCTGAATTCCGGTCTCCC
DNA 2: TGGTGGCTACGACGGGATT
B22: GACUUUU (DNA:RNA)
RNA: B1 RNA with A25G, U27C, A28U, C30U, A31U
DNA 1: CAATCTGAATTCCGGTCTCCC
DNA 2: TGGTGGCTACGACGGGATT
B23: GAGAUGU (DNA:RNA)
RNA: B1 RNA with A25G, U27G, C30G, A31U
DNA 1: CAATCTGAATTCCGGTCTCCC
DNA 2: TGGTGGCTACGACGGGATT
B24: AUGACAU (DNA:RNA)
RNA: B1 RNA with A26U, U27G, U29C, C30A, A31U
DNA 1: CAATCTGAATTCCGGTCTCCC
DNA 2: TGGTGGCTACGACGGGATT
B25: GUCAACG (DNA:RNA)
RNA: B1 RNA with A25G, A26U, U27C, U29A, A31G
DNA 1: CAATCTGAATTCCGGTCTCCC
DNA 2: TGGTGGCTACGACGGGATT
B26: CUAGUCA (DNA:RNA)
RNA: B1 RNA with A25C, A26U, U27A, A28G
DNA 1: CAATCTGAATTCCGGTCTCCC
DNA 2: TGGTGGCTACGACGGGATT
B27: AACAGCG (DNA:RNA)
RNA: B1 RNA with U27C, U29G, A31G
DNA 1: CAATCTGAATTCCGGTCTCCC
DNA 2: TGGTGGCTACGACGGGATT
B28: ACACAGA (DNA:RNA)
RNA: B3 RNA with U25A, C29A, U31A
DNA 1: CAATCTGAATTCCGGTCTCCC
DNA 2: TGGTGGCTACGACGGGATT
B29: UUCGUUU (DNA:RNA)
RNA: B3 RNA with C26U, A27C, C28G, C29U, G30U
DNA 1: CAATCTGAATTCCGGTCTCCC
DNA 2: TGGTGGCTACGACGGGATT
B30: UUGGUAG (DNA:RNA)
RNA: B1 RNA with A25U, A26U, U27G, A28G, C30A, A31G
DNA 1: CAATCTGAATTCCGGTCTCCC
DNA 2: TGGTGGCTACGACGGGATT
B31: UAGGGAA (DNA:RNA)
RNA: B1 RNA with A25U, U27G, A28G, U29G, C30A
DNA 1: CAATCTGAATTCCGGTCTCCC
DNA 2: TGGTGGCTACGACGGGATT

Molecular target: T1, RBFOX1 RRM
Assay: EMSA; HiTS-Eq, 1 nM pool, 10 min; buffer printed only for the single-RNA assays: 10 mM Tris pH 7.5, 150 mM NaCl, 3.4 mM EDTA, 0.001% NP-40, 30 C
Settings: tags: His6 N-terminal (pET28a); label: 5' 32P
How it was run: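 These values rest on relative association constants, computed from read-count changes of each RNA species versus the control reaction and normalised to the cognate motif. Reads came from free RNA recovered by 8% native PAGE after purified RbFox RRM (wild type or mutant) at increasing concentrations was equilibrated for 10 min in 50 µL with 1 nM of a 5′-radiolabelled pool with 7 randomized nucleotides and DNA-annealed flanks.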

Row | Binder | binding signal
1 | B1 | 0.00242 KA relative to UGCAUGU
2 | B2 | 0.0118 KA relative to UGCAUGU
3 | B3 | 0.00405 KA relative to UGCAUGU
4 | B4 | 0.00154 KA relative to UGCAUGU
5 | B5 | 0.0125 KA relative to UGCAUGU
6 | B6 | 0.0166 KA relative to UGCAUGU
7 | B7 | 0.0048 KA relative to UGCAUGU
8 | B8 | 0.00584 KA relative to UGCAUGU
9 | B9 | 0.0228 KA relative to UGCAUGU
10 | B10 | 0.00633 KA relative to UGCAUGU
11 | B11 | 0.0111 KA relative to UGCAUGU
12 | B12 | 0.000229 KA relative to UGCAUGU
13 | B13 | 0.000173 KA relative to UGCAUGU
14 | B14 | 0.00768 KA relative to UGCAUGU
15 | B15 | 0.0264 KA relative to UGCAUGU
16 | B16 | 0.0238 KA relative to UGCAUGU

Row | Binder | binding signal
17 | B17 | 0.00254 KA relative to UGCAUGU
18 | B18 | 0.0159 KA relative to UGCAUGU
19 | B19 | 0.0126 KA relative to UGCAUGU
20 | B20 | 0.0121 KA relative to UGCAUGU
21 | B21 | 0.00986 KA relative to UGCAUGU
22 | B22 | 0.0132 KA relative to UGCAUGU
23 | B23 | 0.0134 KA relative to UGCAUGU
24 | B24 | 0.00405 KA relative to UGCAUGU
25 | B25 | 0.00876 KA relative to UGCAUGU
26 | B26 | 0.00769 KA relative to UGCAUGU
27 | B27 | 0.00422 KA relative to UGCAUGU
28 | B28 | 0.0036 KA relative to UGCAUGU
29 | B29 | 0.013 KA relative to UGCAUGU
30 | B30 | 0.0237 KA relative to UGCAUGU
31 | B31 | 0.00765 KA relative to UGCAUGU
